PubChem BioAssay AID743279 (National Center for Advancing Translational Sciences (NCATS), 2014)
In all, about 360,000 compounds went through this assay and about 17,000 (4.7%) were called active. Inconclusive means that the source gave no clear call. Such entries were picked first, then a sample of the others. Rule as the data show it: active = activity change below about -50%; inconclusive = mostly about -30% to -49%; inactive = weaker than that.
% is scaled to controls: 0 for no effect and ±100 for the full control effect.

Assay: qHTS for Inhibitors of Inflammasome Signaling: IL-1-beta AlphaLISA Primary Screen
Conditions: THP-1 LPS/ATP IL-1B secretion, 16 h; at 57.5 µM, active compounds read low
Outline: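 Secreted IL-1B measured by AlphaLISA bead assay after 16 h compound exposure of THP-1 cells; compounds (final up to 57.5 uM) added 1 h before LPS (250 ng/mL) and ATP (1.25 mM) stimulation; lower signal means less secretion.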
In the case of `CCOC(=O)C1=CCC(c2cc3ccccc3[nH]2)NC1` (stereo not drawn), the activity change is reported as inconclusive: -43.9%.
For `COc1ccc(C(CC(=O)N2CCCC(C)C2)c2c(OC)cc(OC)c3ccc(=O)oc23)cc1` (stereo not drawn), the activity change was inactive: -6.77%.
With `CN(C(=O)COC(=O)c1ccc(=O)n(Cc2ccccc2)n1)C1CCS(=O)(=O)C1` (stereo not drawn) the activity change was inactive: 5.88%.
For `COc1ccc(N(CC(=O)NCC2CCCO2)C(=O)CCC(=O)Nc2nccs2)c(OC)c1` (stereo not drawn), the activity change was inconclusive: -41.4%.
With `CCC(CC)C(=O)Nc1cccc(C(=O)Nc2ccc(S(=O)(=O)Nc3ccc(C)cc3)cc2)c1` the activity change was inconclusive: -33.5%.
For `O=C(Cc1cccs1)Nc1cccc(-c2nnc(-c3ccco3)o2)c1`, the activity change was inconclusive: -39.3%.
In the case of `COc1ccc(-n2nc3c(c2NC(=O)C(C)Oc2ccccc2)CS(=O)(=O)C3)cc1` (stereo not drawn), the activity change is reported as inactive: 9.31%.
With `COc1ccc(-c2csc(Nc3ccc(S(N)(=O)=O)cc3)n2)cc1` the activity change was inconclusive: -30.6%.
With `CCOC(=O)[C@H]1[C@H]2COc3ccc(Br)cc3[C@@H]2N2C(=O)c3ccc(C)cc3NC(=O)[C@@]12C` the activity change was inconclusive: -38.3%.
In the case of `CCOC(=O)CNc1nc2ccccc2n2c(C)nnc12`, the activity change is reported as inconclusive: -41.4%.
For `Cc1ccc2nc(SC(C(=O)Nc3ccc(F)cc3)c3ccccc3)[nH]c2c1` (stereo not drawn), the activity change was active: -51.9%.
In the case of `COc1ccc(N(CC(=O)N/N=C/c2cccs2)S(=O)(=O)c2ccc(OC)c(OC)c2)cc1`, the activity change is reported as inconclusive: -41.7%.
In the case of `Cc1c(NC2=NC3(CCCCC3)Cc3ccccc32)c(=O)n(-c2ccccc2)n1C`, the activity change is reported as inactive: -2.83%.
With `COc1ccccc1-c1c(C)nn2c(NCCN3CCCC3)cc(C)nc12` the activity change was inconclusive: -30.1%.
For `CCc1cccc(C)c1NC(=O)COC(=O)CNC(=O)c1cccs1`, the activity change was inactive: 16.5%.
For `NC(Cc1ccc(C(F)(F)F)cc1)c1csc(Nc2ncccn2)n1` (stereo not drawn), the activity change was active: -52.5%.
For `C/C(=C\C(=O)c1ccncc1)Nc1ccccc1O`, the activity change was inconclusive: -48%.
With `CN(C(=O)COC(=O)/C=C/c1ccc2ccccc2n1)c1c(N)n(Cc2ccccc2)c(=O)[nH]c1=O` the activity change was active: -55.5%.
With `O=C1CC(SCCO)C(=O)N1c1ccccc1` (stereo not drawn) the activity change was inactive: -2.52%.
In the case of `Cc1ccc(Nc2cc(C)c(O)c(C)c2)cc1`, the activity change is reported as inconclusive: -41.8%.
In the case of `Cn1c(=O)c2c(nc(NCc3ccco3)n2C/C=C/c2ccccc2)n(C)c1=O`, the activity change is reported as active: -62.1%.
In the case of `O=C(Cc1ccccc1)n1nc(-c2ccco2)nc1SCc1ccccc1`, the activity change is reported as inconclusive: -40.3%.
For `Oc1ccccc1N1CCN(c2ncnc3scc(-c4ccc(F)cc4)c23)CC1`, the activity change was inconclusive: -48.1%.
